Hit rate of the full screen: of about 360,000 compounds, about 25,000 (6.9%) were called active. Inconclusive means that the source gave no clear call. Such entries were picked first, then a sample of the others. Calls come from the whole dose curve; as a rule, active = well fitted inhibition curve with a large enough effect; inconclusive = small, poorly fitted or top-dose-only effect; inactive = flat fitted curve, though single readings scatter. Where the call is inconclusive, the potency comes from a doubtful curve fit.
These compounds were tested against Luciferin 4-monooxygenase (Photinus pyralis) (UniProt P08659) (assay: qHTS profiling assay for firefly luciferase inhibitor/activator using purifed enzyme and Km concentrations of substrates (counterscreen for miR-21 project)). Settings: purified FLuc, luminescence inhibition; series mostly up to 57.5 µM; activity change, negative = inhibition: at the top concentration.
Method in brief: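 Purified P. pyralis luciferase (10nM final) with 10uM D-luciferin and 10uM ATP (Km levels) in 50mM Tris acetate pH 7.5, 10mM Mg acetate, 0.01% Tween-20, 0.05% BSA; qHTS 6-point titration, ~60 µM downward; luminescence read.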
Note: nearly all actives have a fitted effect of over 55% in size.
Potency is the fitted concentration of half-maximal effect; tags give direction and shape of the fitted curve.
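Throughout, for activity change, negative = inhibition: plate controls were vehicle for no effect and reference inhibitor for full effect.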

UniProt P08659, sequence (P08659 whole entry, looked up): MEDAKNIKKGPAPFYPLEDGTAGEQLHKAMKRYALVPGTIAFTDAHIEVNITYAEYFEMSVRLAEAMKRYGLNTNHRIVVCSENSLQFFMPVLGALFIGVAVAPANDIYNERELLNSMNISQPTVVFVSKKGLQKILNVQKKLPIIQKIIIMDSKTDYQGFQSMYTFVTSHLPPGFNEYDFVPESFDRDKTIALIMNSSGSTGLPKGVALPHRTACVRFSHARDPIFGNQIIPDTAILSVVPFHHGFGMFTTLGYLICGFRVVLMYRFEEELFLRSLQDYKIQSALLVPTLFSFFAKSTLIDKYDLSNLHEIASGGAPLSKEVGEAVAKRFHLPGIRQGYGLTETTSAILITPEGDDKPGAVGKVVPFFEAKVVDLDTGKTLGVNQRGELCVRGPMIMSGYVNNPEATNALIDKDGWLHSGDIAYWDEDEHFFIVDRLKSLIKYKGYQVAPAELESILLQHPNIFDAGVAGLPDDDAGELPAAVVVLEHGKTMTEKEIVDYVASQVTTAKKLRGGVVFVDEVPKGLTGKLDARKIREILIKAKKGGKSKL

SMILES	Potency	activity change, negative = inhibition
Cc1ccccc1OCC(=O)NCC(=O)OCC(=O)c1ccc2ccccc2c1	inconclusive: 23.9 µM [inhibitor, single point]	
COc1ccc(-c2cc(N3C(=O)Nc4ccccc4N3O)n[nH]2)cc1OC	inconclusive: 23.9 µM [inhibitor, partial curve]	
COc1ccc(/C(C)=N/NC(=O)c2ccccc2OCc2ccccc2)c(OC)c1	active: 19 µM	
COc1cc(OC)cc(C(=O)Nc2ccc(-c3nc4cc(C(C)C)ccc4o3)cc2)c1	active: 10.7 µM	
CC1(c2nnc(Cc3ccccc3)o2)CC(c2ccc(OC(F)(F)F)cc2)=NO1 (stereo not drawn)	inconclusive: 23.9 µM [inhibitor, partial curve, poor fit]	
CSc1ccc(S(=O)(=O)NCC(=O)OCC(=O)NCc2cccs2)cc1[N+](=O)[O-]		inactive: 5.7%
O=C1CSC(c2cccc([N+](=O)[O-])c2)N1CCc1ccccc1 (stereo not drawn)		inactive: 0.114%
Cc1cccc(Nc2nnc(SCC(=O)Nc3ccc(C(=O)O)cc3)s2)c1	active: 1.69 µM	
CCOC(=O)CNc1nc(Cl)nc(Nc2ccccc2)n1	inconclusive: 8.49 µM [inhibitor, partial curve, poor fit]	
CN(C(=O)Cn1nnc(-c2ccc(F)cc2)n1)C1CCS(=O)(=O)C1 (stereo not drawn)		inactive: 3.37%
CCc1ccc(OCC2c3cc(OC)c(OC)cc3CCN2C(=S)NCCOC)cc1 (stereo not drawn)		inactive: -1.41%
CC(C)c1cc(=O)n2[nH]c(SCc3ccccc3Cl)nc2n1	inconclusive: 37.9 µM [inhibitor, partial curve, poor fit]	
Cc1ccc(-c2nc(C=Nc3ccccc3)c(O)o2)cc1	active: 9.53 µM	
COC(=O)c1nc2ccc(C)cn2c1F	inconclusive: 16.9 µM [inhibitor, partial curve]	
CCOC(=O)C1CCN(c2nc3c(S(=O)(=O)c4ccccc4)nnn3c3ccc(Cl)cc23)CC1		inactive: -2.74%
CCSc1nc(C)nc2c1oc1ccccc12	inconclusive: 37.9 µM [inhibitor, partial curve, poor fit]	
CS(=O)(=O)c1ccc(-c2nn[nH]n2)cc1	inconclusive: 30.1 µM [inhibitor, single point]	
COc1cc(CNCc2ccc(SC)cc2)cc(OC)c1		inactive: 4.26%
Cc1ccc(C=Nc2ccccc2C(N)=O)cc1	inconclusive: 26.9 µM [inhibitor, single point]	
CCOC(=O)c1ccc2nc(C)cc(Nc3ccc(OC(C)C)cc3)c2c1		inactive: 4.29%
O=C(N/N=C/c1ccco1)c1ccn[nH]1	inconclusive: 37.9 µM [inhibitor, partial curve, poor fit]	
CC(=O)Oc1ccc2oc3c(c2c1)C(=O)CCC3	inconclusive: 16.9 µM [inhibitor, partial curve]	
Cc1ccc(C)c(C(=O)COC(=O)C(C)N2C(=O)C3C4CCC(C4)C3C2=O)c1 (stereo not drawn)	inconclusive: 23.9 µM [inhibitor, single point]	
O=C(NCCC1=CCCCC1)C(=O)c1c[nH]c2ccccc12	inconclusive: 8.49 µM [inhibitor, partial curve, poor fit]	
CCOC(=O)c1cccc(NS(=O)(=O)c2ccc3[nH]c4c(c3c2)CCCC4)c1	inconclusive: 23.9 µM [inhibitor, partial curve, poor fit]	

SMILES	Potency	activity change, negative = inhibition
Cc1ccc(-c2noc(-c3ccc(NCc4cccnc4)c([N+](=O)[O-])c3)n2)cc1	inconclusive: 16.9 µM [inhibitor, partial curve]	
O=C(CSc1nccc(=O)[nH]1)N1N=C2/C(=C/c3ccco3)CCCC2C1c1ccco1 (stereo not drawn)	inconclusive: 21.3 µM [inhibitor, single point]	
O=C(NCc1cccc2[nH]ccc12)C1CCC(=O)N(CCc2ccc(Cl)cc2)C1 (stereo not drawn)		inactive: 1.92%
O=C(CCCOc1cccc(Br)c1)NC1CCC(O)CC1 (stereo not drawn)	inconclusive: 21.3 µM [inhibitor, partial curve]	
CCN(CC)S(=O)(=O)c1cccc(NC(=O)c2ccc(SC)cc2OC)c1	inconclusive: 30.1 µM [inhibitor, single point]	
Nc1ccc2ncccc2c1N	inconclusive: 23.9 µM [inhibitor, partial curve]	
CC1S/C(=N/N=C/c2ccco2)N(Cc2ccc(F)cc2)C1=O (stereo not drawn)	inconclusive: 19 µM [inhibitor, single point]	
CCCSc1ncnc2c1oc1ccccc12	active: 15.1 µM	
CN(C)c1ccnc2sc(C(N)=O)c(N)c12		inactive: -5.77%
COc1cc(CNCCSc2nnnn2C)ccc1OCc1ccc(C)cc1	inconclusive: 37.9 µM [inhibitor, partial curve, poor fit]	
CCSc1ncc(Cl)c(C(=O)N(Cc2ccccc2)c2ccc(OC)cc2)n1		inactive: -8.85%
CCOc1cccc(NC(=O)c2sc3nc(-c4ccc(F)cc4)ccc3c2N)c1		inactive: 4.59%
Cc1ccc(NC(=O)CSc2n[nH]c(-c3ccncc3)n2)cc1C	inconclusive: 37.9 µM [inhibitor, partial curve, poor fit]	
Oc1ccccc1Nc1nc(NCC2CCCO2)c2ccccc2n1 (stereo not drawn)	inconclusive: 26.9 µM [inhibitor, single point]	
Cc1cc(C)cc(N2CC(c3nnc(NC(=O)c4ccco4)s3)CC2=O)c1 (stereo not drawn)	inconclusive: 16.9 µM [inhibitor, partial curve, poor fit]	
O=C(CCN1CCC(c2cccs2)=N1)c1cccs1	inconclusive: 30.1 µM [inhibitor, partial curve, poor fit]	
Cc1cccc(OCC(=O)NC(=S)NNC(=O)c2ccncc2)c1	inconclusive: 26.9 µM [inhibitor, single point]	
COc1ccc(NC(=O)c2cccc(N3C(=O)C4C5CCC(C5)C4C3=O)c2)cc1 (stereo not drawn)	inconclusive: 23.9 µM [inhibitor, single point]	
CC1C/C(=C/c2cccs2)C(=O)/C(=C/c2cccs2)C1 (stereo not drawn)	inconclusive: 23.9 µM [inhibitor, single point]	
O=C1C2C3C=CC(CC3)C2C(=O)N1/N=C/c1ccccc1O (stereo not drawn)	inconclusive: 6.75 µM [inhibitor, full curve]	
Cn1c(N)c(C(=O)Nc2ccc(-c3ccccc3)cc2)sc1=S		inactive: -19.4%
CN(C)c1ccc(/C=N/NC(=O)c2nnn(-c3nonc3N)c2COc2ccc(F)cc2)cc1		inactive: 1.38%
CCOC(=O)c1cc(-c2ccc(OC)cc2)n(CCC(=O)NC2CCCCC2)c1C		inactive: -9.49%
COc1cc(OC)c(OC)cc1/C=C1\SC(N2CCCCC2)=NC1=O	active: 3.79 µM	
CC1CCCCC1NC(=O)C1CCCN(S(=O)(=O)c2ccc(-n3cnnn3)cc2)C1 (stereo not drawn)		inactive: 1.4%

SMILES	Potency	activity change, negative = inhibition
Cc1cccc(C(=O)NC2=NCCS2)c1	active: 8.49 µM	
CCOC(=O)c1cnc2ccc(C)cc2c1Nc1ccc(N(CC)CC)cc1	inconclusive: 37.9 µM [inhibitor, partial curve, poor fit]	
O=C1NC(=S)N/C1=C/c1ccc2c(c1)OCO2	inconclusive: 7.57 µM [inhibitor, full curve]	
CC(=O)Nc1ccc(S(=O)(=O)Oc2ccc3c(c2)C(C)=CC(C)(C)N3)cc1	inconclusive: 19 µM [inhibitor, partial curve, poor fit]	
C/C(=N\NC(=O)c1ccoc1C)c1ccc(Cl)s1	inconclusive: 33.8 µM [inhibitor, partial curve, poor fit]	
Cc1ccc(C(=O)Nc2ccc(C(=O)N3CCCCC3C)cc2)cc1 (stereo not drawn)	inconclusive: 37.9 µM [inhibitor, partial curve, poor fit]	
O=C(O)Cc1ccc(C(=O)c2ccc(Cl)cc2Cl)s1	inconclusive: 37.9 µM [inhibitor, single point]	
O=c1cc(N2CCCCC2)c2ccccc2o1		inactive: -14.9%
Cc1cccc(NC(=O)CN(c2ccc(C(C)C)cc2)S(=O)(=O)c2c(C)nn(C)c2C)n1		inactive: -0.312%
CCc1c(C)nc2c(C)cccc2c1SCCC#N		inactive: -2.91%
c1ccc(Nc2nnc(SCc3cccc4ccccc34)s2)cc1	inconclusive: 21.3 µM [inhibitor, partial curve, poor fit]	
O=C(CSc1nc(-c2ccccc2)nc2c1Cc1ccccc1O2)N1CCCCC1		inactive: -0.704%
CCOc1ccc2nc(NC(=O)c3c([N+](=O)[O-])cnn3CC)sc2c1	inconclusive: 26.9 µM [inhibitor, single point]	
Cc1ccc(Cn2c(=O)n(CCCCC(=O)NCc3ccccc3Cl)c(=O)c3ccccc32)cc1		inactive: 2.06%
Cc1cc(Cn2nc(C(=O)NCc3cccs3)cc2-c2ccccc2)on1		inactive: 2.85%
Cc1cccc(OCC(=O)Nc2ccccc2C(=O)OCc2cc(=O)n3nc(C)sc3n2)c1	inconclusive: 9.53 µM [inhibitor, partial curve, poor fit]	
O=C(N/N=C/c1ccccc1O)C1CCCC1	inconclusive: 23.9 µM [inhibitor, partial curve]	
COc1ccc(OCC(=O)OCc2cc(=O)n3nc(C4CC4)sc3n2)cc1		inactive: -4.74%
CCOC(=O)c1c(NC(=O)/C=C/c2ccc(C)cc2)sc2c1CCCC2		inactive: -1.23%
COc1ccc(NC(=O)COc2ccc3c(c2)CCC3)cc1	inconclusive: 26.9 µM [inhibitor, single point]	
O=C(COc1ccc(Br)cc1)Nc1ccc([N+](=O)[O-])cn1	inconclusive: 26.9 µM [inhibitor, partial curve, poor fit]	
CC(C)COc1ccc(C(=O)Nc2ccc(SC(F)F)cc2)cc1	inconclusive: 4.78 µM [inhibitor, partial curve]	
Cc1cc(OCCn2cc(/C(N)=N/O)c3ccccc32)ccc1Cl	inconclusive: 23.9 µM [inhibitor, partial curve, poor fit]	
